# According to publication PMC9911399, “Two distinct binding modes provide the RNA-binding protein RbFox with extraordinary sequence specificity”:
# Residue numbers refer to the chain shown, from its start. The list shows a part of the results.
# T1: RBFOX1 RRM RbFoxmut (Fox-RRM*) (Homo sapiens, UniProt Q9NWB1 109-208, R118D;E147R;N151S;E152T)
# T1 sequence: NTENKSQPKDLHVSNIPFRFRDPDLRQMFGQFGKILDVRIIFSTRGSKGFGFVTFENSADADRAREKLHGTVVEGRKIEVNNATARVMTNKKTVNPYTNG
# B1: GGGGCUU (DNA:RNA)
# RNA: GGGAGACCGGAAUUCAGAUUGUCCGGGGCUUUUAAAUCCCGUCGUAGCCACCA
# DNA 1: CAATCTGAATTCCGGTCTCCC
# DNA 2: TGGTGGCTACGACGGGATT
# B2: AGCAAUG (DNA:RNA)
# RNA: B1 RNA with G25A, G27C, G28A, C29A, U31G
# DNA 1: CAATCTGAATTCCGGTCTCCC
# DNA 2: TGGTGGCTACGACGGGATT
# B3: ACCGUAU (DNA:RNA)
# RNA: B1 RNA with G25A, G26C, G27C, C29U, U30A
# DNA 1: CAATCTGAATTCCGGTCTCCC
# DNA 2: TGGTGGCTACGACGGGATT
# B4: UAUAGGG (DNA:RNA)
# RNA: GGGAGACCGGAAUUCAGAUUGUCCUAUAGGGUUAAAUCCCGUCGUAGCCACCA
# DNA 1: CAATCTGAATTCCGGTCTCCC
# DNA 2: TGGTGGCTACGACGGGATT
# B5: GAUGGGG (DNA:RNA)
# RNA: B4 RNA with U25G, A28G
# DNA 1: CAATCTGAATTCCGGTCTCCC
# DNA 2: TGGTGGCTACGACGGGATT
# B6: GAGUGGC (DNA:RNA)
# RNA: B4 RNA with U25G, U27G, A28U, G31C
# DNA 1: CAATCTGAATTCCGGTCTCCC
# DNA 2: TGGTGGCTACGACGGGATT
# B7: AGAGUCA (DNA:RNA)
# RNA: B1 RNA with G25A, G27A, C29U, U30C, U31A
# DNA 1: CAATCTGAATTCCGGTCTCCC
# DNA 2: TGGTGGCTACGACGGGATT
# B8: ACUUUGA (DNA:RNA)
# RNA: B4 RNA with U25A, A26C, A28U, G29U, G31A
# DNA 1: CAATCTGAATTCCGGTCTCCC
# DNA 2: TGGTGGCTACGACGGGATT
# B9: AGAUGGC (DNA:RNA)
# RNA: B4 RNA with U25A, A26G, U27A, A28U, G31C
# DNA 1: CAATCTGAATTCCGGTCTCCC
# DNA 2: TGGTGGCTACGACGGGATT
# B10: UGCGACU (DNA:RNA)
# RNA: B1 RNA with G25U, G27C, C29A, U30C
# DNA 1: CAATCTGAATTCCGGTCTCCC
# DNA 2: TGGTGGCTACGACGGGATT
# B11: AGACACC (DNA:RNA)
# RNA: B1 RNA with G25A, G27A, G28C, C29A, U30C, U31C
# DNA 1: CAATCTGAATTCCGGTCTCCC
# DNA 2: TGGTGGCTACGACGGGATT
# B12: UCUCGGC (DNA:RNA)
# RNA: B4 RNA with A26C, A28C, G31C
# DNA 1: CAATCTGAATTCCGGTCTCCC
# DNA 2: TGGTGGCTACGACGGGATT
# B13: GGGUUAC (DNA:RNA)
# RNA: B1 RNA with G28U, C29U, U30A, U31C
# DNA 1: CAATCTGAATTCCGGTCTCCC
# DNA 2: TGGTGGCTACGACGGGATT
# B14: UCAGCGC (DNA:RNA)
# RNA: B1 RNA with G25U, G26C, G27A, U30G, U31C
# DNA 1: CAATCTGAATTCCGGTCTCCC
# DNA 2: TGGTGGCTACGACGGGATT
# B15: UAAACGG (DNA:RNA)
# RNA: B4 RNA with U27A, G29C
# DNA 1: CAATCTGAATTCCGGTCTCCC
# DNA 2: TGGTGGCTACGACGGGATT
# B16: CUUACUC (DNA:RNA)
# RNA: B1 RNA with G25C, G26U, G27U, G28A, U31C
# DNA 1: CAATCTGAATTCCGGTCTCCC
# DNA 2: TGGTGGCTACGACGGGATT
# B17: GAAUGAU (DNA:RNA)
# RNA: B1 RNA with G26A, G27A, G28U, C29G, U30A
# DNA 1: CAATCTGAATTCCGGTCTCCC
# DNA 2: TGGTGGCTACGACGGGATT
# B18: GCCGUGU (DNA:RNA)
# RNA: B1 RNA with G26C, G27C, C29U, U30G
# DNA 1: CAATCTGAATTCCGGTCTCCC
# DNA 2: TGGTGGCTACGACGGGATT
# B19: GAACUCC (DNA:RNA)
# RNA: B1 RNA with G26A, G27A, G28C, C29U, U30C, U31C
# DNA 1: CAATCTGAATTCCGGTCTCCC
# DNA 2: TGGTGGCTACGACGGGATT
# B20: GGCCCUG (DNA:RNA)
# RNA: B1 RNA with G27C, G28C, U31G
# DNA 1: CAATCTGAATTCCGGTCTCCC
# DNA 2: TGGTGGCTACGACGGGATT
# B21: AGUGACA (DNA:RNA)
# RNA: B1 RNA with G25A, G27U, C29A, U30C, U31A
# DNA 1: CAATCTGAATTCCGGTCTCCC
# DNA 2: TGGTGGCTACGACGGGATT
# B22: AUUGUCC (DNA:RNA)
# RNA: B1 RNA with G25A, G26U, G27U, C29U, U30C, U31C
# DNA 1: CAATCTGAATTCCGGTCTCCC
# DNA 2: TGGTGGCTACGACGGGATT
# B23: AGAGGCG (DNA:RNA)
# RNA: B1 RNA with G25A, G27A, C29G, U30C, U31G
# DNA 1: CAATCTGAATTCCGGTCTCCC
# DNA 2: TGGTGGCTACGACGGGATT
# B24: CGCUGGC (DNA:RNA)
# RNA: B4 RNA with U25C, A26G, U27C, A28U, G31C
# DNA 1: CAATCTGAATTCCGGTCTCCC
# DNA 2: TGGTGGCTACGACGGGATT
# B25: GUUGUAU (DNA:RNA)
# RNA: B1 RNA with G26U, G27U, C29U, U30A
# DNA 1: CAATCTGAATTCCGGTCTCCC
# DNA 2: TGGTGGCTACGACGGGATT
# B26: UCAAUGC (DNA:RNA)
# RNA: B4 RNA with A26C, U27A, G29U, G31C
# DNA 1: CAATCTGAATTCCGGTCTCCC
# DNA 2: TGGTGGCTACGACGGGATT
# B27: GUUGACG (DNA:RNA)
# RNA: B1 RNA with G26U, G27U, C29A, U30C, U31G
# DNA 1: CAATCTGAATTCCGGTCTCCC
# DNA 2: TGGTGGCTACGACGGGATT
# B28: CCGCCCG (DNA:RNA)
# RNA: B1 RNA with G25C, G26C, G28C, U30C, U31G
# DNA 1: CAATCTGAATTCCGGTCTCCC
# DNA 2: TGGTGGCTACGACGGGATT
# B29: UGCUGCU (DNA:RNA)
# RNA: B1 RNA with G25U, G27C, G28U, C29G, U30C
# DNA 1: CAATCTGAATTCCGGTCTCCC
# DNA 2: TGGTGGCTACGACGGGATT
# B30: CGUAAAG (DNA:RNA)
# RNA: B4 RNA with U25C, A26G, G29A, G30A
# DNA 1: CAATCTGAATTCCGGTCTCCC
# DNA 2: TGGTGGCTACGACGGGATT
# B31: ACGUUAG (DNA:RNA)
# RNA: B1 RNA with G25A, G26C, G28U, C29U, U30A, U31G
# DNA 1: CAATCTGAATTCCGGTCTCCC
# DNA 2: TGGTGGCTACGACGGGATT
# Target: T1, RBFOX1 RRM RbFoxmut (Fox-RRM*)
# Test: EMSA; HiTS-Eq, 1 nM pool, 10 min; buffer printed only for the single-RNA assays: 10 mM Tris pH 7.5, 150 mM NaCl, 3.4 mM EDTA, 0.001% NP-40, 30 C
# Details: tags: His6 N-terminal (pET28a); label: 5' 32P
# Outline: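 A pool of RNA with 7 randomized nucleotides, 5′-radiolabelled and with DNA-annealed flanks, was equilibrated at 1 nM for 10 min in 50 µL with purified RbFox RRM, wild type or mutant, across increasing protein concentrations. Free RNA was separated by 8% native PAGE, excised, reverse-transcribed, barcoded by PCR and sequenced. Relative association constants were obtained from read-count changes of each RNA species versus the control reaction and normalised to the cognate motif.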
row,Binder,binding signal
1,B1,0.0747 KA relative to UGCAUGU
2,B2,0.0741 KA relative to UGCAUGU
3,B3,0.119 KA relative to UGCAUGU
4,B4,0.0822 KA relative to UGCAUGU
5,B5,0.0852 KA relative to UGCAUGU
6,B6,0.116 KA relative to UGCAUGU
7,B7,0.106 KA relative to UGCAUGU
8,B8,0.11 KA relative to UGCAUGU
9,B9,0.135 KA relative to UGCAUGU
10,B10,0.0832 KA relative to UGCAUGU
11,B11,0.0326 KA relative to UGCAUGU
12,B12,0.094 KA relative to UGCAUGU
13,B13,0.0932 KA relative to UGCAUGU
14,B14,0.0871 KA relative to UGCAUGU
15,B15,0.0712 KA relative to UGCAUGU
16,B16,0.0513 KA relative to UGCAUGU

row,Binder,binding signal
1,B17,0.641 KA relative to UGCAUGU
2,B18,0.128 KA relative to UGCAUGU
3,B19,0.0356 KA relative to UGCAUGU
4,B20,0.093 KA relative to UGCAUGU
5,B21,0.0712 KA relative to UGCAUGU
6,B22,0.0816 KA relative to UGCAUGU
7,B23,0.144 KA relative to UGCAUGU
8,B24,0.137 KA relative to UGCAUGU
9,B25,0.196 KA relative to UGCAUGU
10,B26,0.0703 KA relative to UGCAUGU
11,B27,0.0777 KA relative to UGCAUGU
12,B28,0.096 KA relative to UGCAUGU
13,B29,0.12 KA relative to UGCAUGU
14,B30,0.112 KA relative to UGCAUGU
15,B31,0.138 KA relative to UGCAUGU
